Results as given in PubChem BioAssay AID720709 (National Center for Advancing Translational Sciences (NCATS), 2013).
About 520 (0.14%) of roughly 360,000 compounds were called active. The inconclusive results got no clear call from the source; some entries with a clear call stand among them for comparison. Calls follow the shape of the dose curve; as a rule, active = well fitted inhibition curve with a large enough effect; inconclusive = small, poorly fitted or top-dose-only effect; inactive = no such curve, though single readings can be large or run the other way. Potencies of inconclusive entries are left out as doubtful fits.

target: Rap guanine nucleotide exchange factor 3 (Homo sapiens) (UniProt O95398); assay: qHTS for Antagonist of cAMP-regulated guanine nucleotide exchange factor 3 (EPAC1): primary screen; conditions: EPAC1 GEF assay, Rap1b-BODIPY-GDP exchange fluorescence; activity change, negative = inhibition: at 115 µM (top of the series); also: nearly all actives have a fitted effect of over 50% in size;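 as to activity change, negative = inhibition: plate controls were vehicle for no effect and positive control for full effect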
Potency is read from the fitted curve at half-maximal effect; tags tell the direction and shape of the fitted curve.

Chain of UniProt O95398 (O95398 whole entry, looked up): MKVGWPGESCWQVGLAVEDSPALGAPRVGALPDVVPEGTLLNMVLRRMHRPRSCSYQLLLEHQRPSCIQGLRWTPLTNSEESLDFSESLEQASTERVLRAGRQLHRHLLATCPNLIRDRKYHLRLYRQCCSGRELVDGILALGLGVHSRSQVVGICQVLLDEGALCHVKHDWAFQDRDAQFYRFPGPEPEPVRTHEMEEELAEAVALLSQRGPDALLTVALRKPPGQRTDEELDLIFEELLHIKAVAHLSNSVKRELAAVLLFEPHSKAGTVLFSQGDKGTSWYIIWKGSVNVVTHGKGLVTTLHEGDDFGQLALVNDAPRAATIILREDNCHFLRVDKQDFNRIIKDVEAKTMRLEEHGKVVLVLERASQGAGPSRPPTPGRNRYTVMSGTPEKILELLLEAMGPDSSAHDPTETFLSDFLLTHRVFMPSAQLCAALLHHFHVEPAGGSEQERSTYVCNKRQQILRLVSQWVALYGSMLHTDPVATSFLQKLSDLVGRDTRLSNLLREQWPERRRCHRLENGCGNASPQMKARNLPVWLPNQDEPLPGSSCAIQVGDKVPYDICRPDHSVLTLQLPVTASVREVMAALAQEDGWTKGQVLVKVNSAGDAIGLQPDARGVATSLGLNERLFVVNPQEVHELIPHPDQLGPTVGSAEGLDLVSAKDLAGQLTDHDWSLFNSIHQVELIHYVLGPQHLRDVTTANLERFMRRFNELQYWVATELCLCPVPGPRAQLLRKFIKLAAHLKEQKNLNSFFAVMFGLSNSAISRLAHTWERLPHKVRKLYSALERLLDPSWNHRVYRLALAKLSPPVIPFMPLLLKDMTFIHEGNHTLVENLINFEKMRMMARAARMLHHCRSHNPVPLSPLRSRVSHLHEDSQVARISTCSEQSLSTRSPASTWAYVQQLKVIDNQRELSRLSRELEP

Row | Compound | activity change, negative = inhibition | Potency
1 | CC(C)c1c(O)ccc2c1CC[C@H]1C(C)(C)CCC[C@]21C | inactive: -29.3% | 
2 | Cc1cccc(NC(=O)CNc2cc(C)ccc2C)c1 |  | inconclusive [inhibitor, single point]
3 | O=C1OC(/C(=C\Nc2ccccc2)[N+](=O)[O-])c2ccccc21 (configuration not stated) |  | inconclusive [inhibitor, single point]
4 | CCN(CC)S(=O)(=O)c1ccc2[nH]c(=O)cc(C(=O)Nc3ccc(C)c(S(=O)(=O)N(CC)CC)c3)c2c1 |  | inconclusive [inhibitor, partial curve, poor fit]
5 | COc1cccc(C(C(=O)NC(C)(C)C)N(CCc2ccccc2)C(=O)CCC(=O)Nc2cc(C)on2)c1OC (configuration not stated) |  | inconclusive [inhibitor, partial curve, poor fit]
6 | COc1ccc(N(CC(=O)Nc2ccc(C)c(C)c2)S(=O)(=O)c2c(C)n[nH]c2C)cc1 |  | inconclusive [inhibitor, partial curve]
7 | O=C(O)[C@@H](c1ccccc1)N1Cc2ccccc2C1=O |  | inconclusive [inhibitor, single point]
8 | CCN(CC(=O)Nc1ccccc1C(F)(F)F)C(=O)CCOc1ccccc1C | inactive: -15% | 
9 | Cc1ccc2oc(=O)n(CCOc3ccccc3Cl)c2c1 |  | inconclusive [inhibitor, single point]
10 | COc1ccc(NC(=S)Nc2ccccc2)cc1 |  | inactive
11 | CCOc1cc(/C=C2\CN(CC)C/C(=C\c3ccc(O)c(OCC)c3)C2=O)ccc1O |  | inconclusive [inhibitor, partial curve]
12 | Cc1ccc(/C=C2/SC(=O)NC2=S)o1 |  | inconclusive [inhibitor, single point]
13 | O=C(Nc1ccc(F)cc1)N1CCN2C(=O)c3ccccc3C12c1ccccc1 (configuration not stated) |  | inconclusive [inhibitor, full curve]
14 | CCOC(=O)c1ccc(N2CCN(c3cc(C)ccc3C)CC2)c(N)c1 | inactive: -8.59% | 
15 | CCCCOc1ccc(-c2nnn(CC(=O)Nc3ncc(CC(=O)OCC)s3)n2)cc1 |  | inconclusive [inhibitor, partial curve]
16 | CC/C(=N/Nc1cccc(C)c1)c1cnnc(SC)n1 |  | inconclusive [inhibitor, single point]
17 | O=c1cc(CSc2ccc(Cl)cc2)[nH]c2[nH]n(-c3ccccc3)c(=O)c12 |  | inconclusive [inhibitor, partial curve]
18 | NS(=O)(=O)c1cccc(NC(=O)CSc2ncnc3ccccc23)c1 |  | inconclusive [inhibitor, single point]
19 | CC(C)CNS(=O)(=O)c1ccc(Br)cc1N1CCC[C@@H]1CO | inactive: -23.6% | 
20 | O=C1C=C(O)C(n2cncn2)C(c2ccc3c(c2)OCO3)C1 (configuration not stated) |  | inconclusive [inhibitor, single point]
21 | O=C(O)CNS(=O)(=O)/C=C/c1ccccc1 |  | inconclusive [inhibitor, single point]

Row | Compound | activity change, negative = inhibition | Potency
22 | Cc1cc(C)c(C(=O)COC(=O)c2cc([N+](=O)[O-])ccc2N2CCOCC2)cc1C | inactive: 4.19% | 
23 | Cc1ccc(Cc2cnc(N)s2)o1 |  | inconclusive [inhibitor, partial curve]
24 | CCN1CCN(CCCNC(=O)CCC(=O)N2CCOc3ccc(Cl)cc32)CC1 |  | inconclusive [inhibitor, single point]
25 | N#CC1=C(c2ccc(-c3ccccc3)cc2)COC1=O |  | inconclusive [inhibitor, partial curve, poor fit]
26 | COc1ccc(C(CC(=O)N2CCCC2)c2c(OC)cc(OC)c3c(-c4ccccc4)cc(=O)oc23)cc1 (configuration not stated) |  | inconclusive [inhibitor, single point]
27 | Cc1[nH]c2ccccc2c1C(=O)C(=O)Nc1ccc2c(c1)OCO2 |  | inconclusive [inhibitor, partial curve]
28 | COc1ccc(/C(N)=N/OC(=O)C2CCC(=O)N2S(=O)(=O)c2ccc(C)cc2)cc1OC (configuration not stated) |  | inconclusive [inhibitor, partial curve, poor fit]
29 | Cc1cccc(NC(=S)NC(=O)c2ccc(-c3ccccc3)cc2)n1 | inactive: -4.11% | 
30 | CC1(C(=O)NS(=O)(=O)c2cccc(Cl)c2)CCN1C(=O)C1(c2ccc(Cl)cc2)CCC1 (configuration not stated) |  | inconclusive [inhibitor, partial curve, poor fit]
31 | CCOc1ccc(CCNC(=O)COC(=O)c2cccs2)cc1OCC |  | inconclusive [inhibitor, partial curve]
32 | CC(C)c1ccc(Nc2ccc(C(=O)O)cc2[N+](=O)[O-])cc1 |  | inconclusive [inhibitor, partial curve, poor fit]
33 | Cc1cccc(N2C(=O)CC(SC(N)=Nc3ccccc3)C2=O)c1 (configuration not stated) |  | inconclusive [inhibitor, single point]
34 | C/C(=N\Nc1cccc([N+](=O)[O-])c1)c1cc(F)ccc1O |  | inconclusive [inhibitor, single point]
35 | COc1ccc(CN2C(=O)CN(S(C)(=O)=O)CC2(C)C(=O)Nc2c(C)cccc2C)cc1 (configuration not stated) | inactive: 10.4% | 
36 | Cc1ccc(NC(=O)Cn2nnc(-c3ccc4c(c3)OCO4)n2)cc1F |  | inconclusive [inhibitor, partial curve, poor fit]
37 | O=C1CC(N2CCC(c3nc4ccccc4o3)CC2)C(=O)N1c1ccc(F)cc1 (configuration not stated) |  | inconclusive [inhibitor, single point]
38 | CC1(c2nnc(-c3ccccc3)o2)CC(c2c(Cl)cccc2Cl)=NO1 (configuration not stated) |  | inconclusive [inhibitor, full curve, poor fit]
39 | Cc1ccccc1N(CC(=O)NCCSCc1ccco1)S(C)(=O)=O | inactive: 17.5% | 
40 | CC1=CC(C)(C)Nc2ccc(OC(=O)CN3C(=O)CCC3=O)cc21 | inactive: -7.6% | 
41 | CC1CCCCN1C(=O)COC(=O)C1CCN(S(=O)(=O)c2ccc3c(c2)OCCO3)CC1 (configuration not stated) | inactive: 5.36% | 
42 | COc1cccc(NC(=O)CCC(=O)Nc2cccc(OC)c2)c1 | inactive: -12.1% | 
